Measured values taken from PubChem BioAssay (NCI).
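Values below derive from 48-hour exposures of cells grown in 96-well plates, with endpoints linearly interpolated between the two concentrations bracketing the appropriate inhibition level. The concentration for full growth arrest is given as TGI.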 A number of entries come with more than one value. This list holds those alone. An entry can have further records. A record mostly stands for its own series of concentrations, not given here; a value can be the end of its range. *1 amine or outer side, *2 acyl side, *3 side chain or, on linkers, in order; H or OH if unused. Where a SMILES comes first, the peptide text is derived from it. [ ]: non-standard residue; d: D form. X3 = CC[C@H](C)[C@H](OC(=O)[C@@H](C)[C@@H](CC)N[*:1])C(=O)[*:2]; X4 = C[C@H](N[*:1])C(=O)C(C)(C)C(=O)[*:2]; NMeY = CN[C@@H](Cc1ccc(O)cc1)C(=O)O; NMeL = CN[C@@H](CC(C)C)C(=O)O; NMeV = CN[C@H](C(=O)O)C(C)C

Assays:
Experiment in all cases: inhibition of tumour cell growth, NCI panel, 48 h
NCI-H522 lung = tested on: NCI-H522 lung
OVCAR-3 ovarian = tested on: OVCAR-3 ovarian
LOX IMVI melanoma = tested on: LOX IMVI melanoma
SK-OV-3 ovarian = tested on: SK-OV-3 ovarian
OVCAR-4 ovarian = tested on: OVCAR-4 ovarian
MALME-3M melanoma = tested on: MALME-3M melanoma
UACC-257 melanoma = tested on: UACC-257 melanoma
SF-268 CNS = tested on: SF-268 CNS
HL-60(TB) leukemia = tested on: HL-60(TB) leukemia
SNB-75 CNS = tested on: SNB-75 CNS

Row | Compound | TGI (NCI-H522 lung) | TGI (OVCAR-3 ovarian) | TGI (LOX IMVI melanoma) | TGI (SK-OV-3 ovarian) | TGI (OVCAR-4 ovarian) | TGI (MALME-3M melanoma) | TGI (UACC-257 melanoma) | TGI (SF-268 CNS) | TGI (HL-60(TB) leukemia) | TGI (SNB-75 CNS)
1 | CSc1ncnc2c1CCN2 | 8.94 µM and > 100 µM | 9.26 µM and > 100 µM | – | – | – | – | – | – | – | –
2 | CC[C@H](C)[C@@H]1OC(=O)[C@@H](C)[C@@H](CC)NC(=O)[C@H](C)NC(=O)C(C)(C)C(=O)[C@H](C)NC(=O)[C@H](Cc2ccc(OC)cc2)N(C)C(=O)[C@H](C(C)C)N(C)C(=O)CNC(=O)[C@H](CC(C)C)N(C)C(=O)CNC1=O (cyclo(A[X3]G[NMeL]G[NMeV][NMeY](Me)[X4])) | 694 nM and 39.2 nM | – | 1.06 µM and 47.7 nM | 2.36 µM and 143 nM | 513 nM and 30.5 nM | 4.77 µM and 344 nM | 6.61 µM and 271 nM | 6.72 µM and 638 nM | 1.31 µM and 26.5 nM | 1.16 µM and < 22.4 nM
